Results taken from the RNAGym collection of RNA variant scans (doi:10.1101/gad.245936.114).
This sample is rich in variants without activity.

B1: tRNA (parent)
chain: CUCUCGGUAGCCAAGUUGGUUUAAGGCGCAAGACUUUAAUUUAUCACUACGAAAUCUUGAGAUCGGGCGUUCGACUCGCCCCCGGGAGAUUUUUUCCUCGAGCAA

Variants of: B1
Assay: nonsense suppression (GFP-seq) (ratio to wild type); higher = more function; SUP4oc tRNA, yeast GFP reporter sort-seq
Method in brief: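 Raffinose/galactose medium with 80 mg/L adenine was used to grow yeast carrying genome-integrated tRNA variants (~3% random-mutation library), RFP, and a galactose-driven GFP ochre reporter. Cells went into GFP/RFP bins, which were Illumina-sequenced, and variants with ≥100 reads and ≥30 cells were scored. Nonsense suppression (GFPSEQ) is the per-bin median GFP/RFP weighted by estimated cell share and expressed relative to the unmutated parent tRNA.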
Variant A24C G69A has a nonsense suppression of no more than 0.026.
A24C G73U G78C gave a nonsense suppression of no more than 0.026.
For A24C G78C, the nonsense suppression was no more than 0.026.
In the case of A24C G84A, the nonsense suppression is reported as 0.478.
In the case of A24C G85A G86A, the nonsense suppression is reported as no more than 0.026.
With A24C U35A A54G U63G the nonsense suppression was no more than 0.026.
A24C U57A showed a nonsense suppression of 0.0454.
Work on A24C U57C U58G G61U C72U yielded a nonsense suppression of no more than 0.026.
With A24C U57G the nonsense suppression was no more than 0.026.
Work on A24C U58C yielded a nonsense suppression of 0.034.
For A24C U58G G65C, the nonsense suppression was no more than 0.026.
In the case of A24C U63A, the nonsense suppression is reported as 0.636.
Variant A24C U63C A87G has a nonsense suppression of no more than 0.026.
A24C U63G showed a nonsense suppression of 0.133.
A24C U70C C83U gave a nonsense suppression of no more than 0.026.
With A24G the nonsense suppression was 0.188.
With A24G A30C G32A G59A the nonsense suppression was no more than 0.026.
Work on A24G A31C A87U yielded a nonsense suppression of no more than 0.026.
For A24G A31U, the nonsense suppression was no more than 0.026.
Variant A24G A31U C34U A74G has a nonsense suppression of no more than 0.026.
A24G A33C C77G showed a nonsense suppression of no more than 0.026.
With A24G A33G G66U the nonsense suppression was no more than 0.026.
In the case of A24G A33G U71C, the nonsense suppression is reported as no more than 0.026.
Variant A24G A54G has a nonsense suppression of no more than 0.026.
A24G A54G G67A showed a nonsense suppression of no more than 0.026.
Variant A24G A60G has a nonsense suppression of 0.0307.
A24G A60U showed a nonsense suppression of no more than 0.026.
A24G A62U C83A showed a nonsense suppression of no more than 0.026.
Variant A24G A62U G65A has a nonsense suppression of no more than 0.026.
Work on A24G A62U G67A U76G yielded a nonsense suppression of no more than 0.026.
In the case of A24G A87C, the nonsense suppression is reported as no more than 0.026.
In the case of A24G A87G, the nonsense suppression is reported as 0.0583.
Variant A24G A89C has a nonsense suppression of no more than 0.026.
Variant A24G A89G has a nonsense suppression of no more than 0.026.
Work on A24G C29A G66U yielded a nonsense suppression of no more than 0.026.
In the case of A24G C29G, the nonsense suppression is reported as no more than 0.026.
In the case of A24G C29U, the nonsense suppression is reported as 0.0384.
For A24G C34U, the nonsense suppression was no more than 0.026.
For A24G C56A G59A, the nonsense suppression was no more than 0.026.
With A24G C64A G66C the nonsense suppression was no more than 0.026.
With A24G C64G C82U the nonsense suppression was no more than 0.026.
With A24G C68U the nonsense suppression was no more than 0.026.
Work on A24G C72G C75U yielded a nonsense suppression of no more than 0.026.
A24G C72G G78A showed a nonsense suppression of no more than 0.026.
For A24G C72U C75U, the nonsense suppression was no more than 0.026.
For A24G C75U, the nonsense suppression was 0.185.
Variant A24G C79A has a nonsense suppression of no more than 0.026.
For A24G C79G, the nonsense suppression was no more than 0.026.
Variant A24G C79G G85U has a nonsense suppression of no more than 0.026.
Work on A24G C79G G86C yielded a nonsense suppression of no more than 0.026.
A24G C79U G86A gave a nonsense suppression of no more than 0.026.
Variant A24G C83A has a nonsense suppression of no more than 0.026.
A24G G28A A87G showed a nonsense suppression of no more than 0.026.
A24G G32A A87U gave a nonsense suppression of no more than 0.026.
Work on A24G G32A U55A C79A yielded a nonsense suppression of no more than 0.026.
In the case of A24G G59A, the nonsense suppression is reported as no more than 0.026.
With A24G G59A C79G the nonsense suppression was no more than 0.026.
In the case of A24G G59A G61U U63C G66A, the nonsense suppression is reported as no more than 0.026.
For A24G G59C, the nonsense suppression was no more than 0.026.
Work on A24G G59U G65A yielded a nonsense suppression of no more than 0.026.
In the case of A24G G61C U76G, the nonsense suppression is reported as no more than 0.026.
Work on A24G G65C G85A yielded a nonsense suppression of no more than 0.026.
A24G G66C A74U gave a nonsense suppression of no more than 0.026.
A24G G66U C83A gave a nonsense suppression of no more than 0.026.
Variant A24G G69A G78A has a nonsense suppression of no more than 0.026.
Work on A24G G73A A89C yielded a nonsense suppression of no more than 0.026.
Work on A24G U35A yielded a nonsense suppression of no more than 0.026.
With A24G U35A C75G the nonsense suppression was no more than 0.026.
In the case of A24G U35G, the nonsense suppression is reported as no more than 0.026.
With A24G U35G U57A the nonsense suppression was no more than 0.026.
For A24G U55A, the nonsense suppression was no more than 0.026.
Work on A24G U55C yielded a nonsense suppression of 0.0553.
A24G U57A C79G showed a nonsense suppression of no more than 0.026.
With A24G U57C A60G C75U the nonsense suppression was no more than 0.026.
Work on A24G U57C U70A G85C yielded a nonsense suppression of no more than 0.026.
A24G U57G G84U A87U showed a nonsense suppression of no more than 0.026.
With A24G U76A the nonsense suppression was no more than 0.026.
Work on A24U yielded a nonsense suppression of 0.487.
Variant A24U A30C C64A has a nonsense suppression of no more than 0.026.
In the case of A24U A30G, the nonsense suppression is reported as 0.148.
For A24U A31C U70C G73A, the nonsense suppression was no more than 0.026.
A24U A33C showed a nonsense suppression of no more than 0.026.
A24U A33G gave a nonsense suppression of 0.117.
A24U A33G A54C showed a nonsense suppression of no more than 0.026.
Variant A24U A33G C79A has a nonsense suppression of no more than 0.026.
A24U A33G G84U showed a nonsense suppression of no more than 0.026.
For A24U A60G U76A A87C, the nonsense suppression was no more than 0.026.
For A24U A62C, the nonsense suppression was no more than 0.026.
A24U A74C C79A C81A showed a nonsense suppression of no more than 0.026.
A24U C29G U57G G73C gave a nonsense suppression of no more than 0.026.
For A24U C34A G84C, the nonsense suppression was no more than 0.026.
Work on A24U C34A U71C yielded a nonsense suppression of no more than 0.026.
A24U C34G gave a nonsense suppression of no more than 0.026.
With A24U C34G U58G G59U C83A the nonsense suppression was no more than 0.026.
For A24U C34U, the nonsense suppression was no more than 0.026.
Variant A24U C56A U63C U70C has a nonsense suppression of no more than 0.026.
A24U C56A U63G showed a nonsense suppression of no more than 0.026.
In the case of A24U C56U U58G, the nonsense suppression is reported as no more than 0.026.
Work on A24U C68U A74G yielded a nonsense suppression of no more than 0.026.
For A24U C81A G86U, the nonsense suppression was no more than 0.026.
For A24U C83A, the nonsense suppression was no more than 0.026.
Variant A24U G25C has a nonsense suppression of no more than 0.026.
For A24U G25C A54U C81A G85A, the nonsense suppression was no more than 0.026.
With A24U G26C the nonsense suppression was no more than 0.026.
For A24U G32A G69A C75U, the nonsense suppression was no more than 0.026.
For A24U G59U G67A, the nonsense suppression was no more than 0.026.
With A24U G61A the nonsense suppression was 0.124.
In the case of A24U G65C, the nonsense suppression is reported as no more than 0.026.
With A24U G65C A74G C82G G85A the nonsense suppression was no more than 0.026.
In the case of A24U G66C, the nonsense suppression is reported as no more than 0.026.
In the case of A24U G67C, the nonsense suppression is reported as no more than 0.026.
Work on A24U G67U yielded a nonsense suppression of no more than 0.026.
In the case of A24U G69C, the nonsense suppression is reported as no more than 0.026.
Work on A24U G73C C80G yielded a nonsense suppression of no more than 0.026.
A24U G78C C80G showed a nonsense suppression of no more than 0.026.
For A24U G84A, the nonsense suppression was 0.0448.
Variant A24U G85A A87G has a nonsense suppression of 0.215.
A24U G85A A89C gave a nonsense suppression of no more than 0.026.
For A24U G86U, the nonsense suppression was no more than 0.026.
With A24U U35G the nonsense suppression was no more than 0.026.
With A24U U35G U70A the nonsense suppression was no more than 0.026.
In the case of A24U U58G A60G G88A, the nonsense suppression is reported as no more than 0.026.
In the case of A24U U76C C77A G85C A89C, the nonsense suppression is reported as no more than 0.026.
With G25A the nonsense suppression was no more than 0.026.
With G25A A30G the nonsense suppression was no more than 0.026.
With G25A A30G G66U the nonsense suppression was no more than 0.026.
With G25A A30U the nonsense suppression was no more than 0.026.
Variant G25A A33C G61U G73C has a nonsense suppression of no more than 0.026.
G25A A33U gave a nonsense suppression of no more than 0.026.
G25A A54U U71G gave a nonsense suppression of no more than 0.026.
With G25A A60G G65A C82A the nonsense suppression was no more than 0.026.
Variant G25A A62C C79U has a nonsense suppression of no more than 0.026.
For G25A C29G A60G, the nonsense suppression was no more than 0.026.
In the case of G25A C29G G73C, the nonsense suppression is reported as no more than 0.026.
For G25A C29U G59U G61U, the nonsense suppression was no more than 0.026.
G25A C56U G59U A62C U71A C79A showed a nonsense suppression of no more than 0.026.
In the case of G25A C68U, the nonsense suppression is reported as no more than 0.026.
With G25A C72G the nonsense suppression was no more than 0.026.
Work on G25A C75U yielded a nonsense suppression of no more than 0.026.
With G25A C79G the nonsense suppression was no more than 0.026.
With G25A G26A A30G A31U C77G the nonsense suppression was no more than 0.026.
For G25A G26A A30G A31U C77U, the nonsense suppression was no more than 0.026.
Work on G25A G26U C56G yielded a nonsense suppression of 0.0585.
Work on G25A G32A U57G U58G A62U G88C yielded a nonsense suppression of no more than 0.026.
Work on G25A G32U A74G yielded a nonsense suppression of no more than 0.026.
Variant G25A G59C U63C has a nonsense suppression of no more than 0.026.
Variant G25A G59U G61U A62U has a nonsense suppression of no more than 0.026.
In the case of G25A G61A G73C, the nonsense suppression is reported as no more than 0.026.
For G25A G61A G84C, the nonsense suppression was no more than 0.026.
In the case of G25A G66A, the nonsense suppression is reported as no more than 0.026.
Work on G25A G67A yielded a nonsense suppression of no more than 0.026.
Work on G25A G69C yielded a nonsense suppression of no more than 0.026.
G25A G69C G73A showed a nonsense suppression of no more than 0.026.
G25A G69C G88C showed a nonsense suppression of no more than 0.026.
With G25A G73C A87G the nonsense suppression was no more than 0.026.
With G25A G78A the nonsense suppression was no more than 0.026.
G25A G88C gave a nonsense suppression of no more than 0.026.
For G25A U55G, the nonsense suppression was no more than 0.026.
In the case of G25A U57C, the nonsense suppression is reported as no more than 0.026.
G25A U57G showed a nonsense suppression of no more than 0.026.
G25A U57G U63G showed a nonsense suppression of no more than 0.026.
Variant G25A U63G A74G C81G has a nonsense suppression of no more than 0.026.
G25A U70C G73U showed a nonsense suppression of no more than 0.026.
In the case of G25A U70G C77U, the nonsense suppression is reported as no more than 0.026.
Work on G25A U71C G86C yielded a nonsense suppression of no more than 0.026.
For G25C, the nonsense suppression was 0.185.
G25C A31C showed a nonsense suppression of no more than 0.026.
